Results published in PMC4336329 (PLoS ONE, 2015).
In all, about 310,000 compounds went through this assay and about 14,000 (4.5%) showed an effect of 50% or more. Effects have a minus sign here. Some of the results follow.

The compounds below were run against human ether-à-go-go-related gene (hERG) potassium channel (human, UniProt Q12809) (assay: primary screen, population patch clamp on CHO cells stably expressing hERG).
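Further: peak tail current of the secondary pulse compared with the same well before compound.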

Sequence of human ether-à-go-go-related gene (hERG) potassium channel (Q12809 whole entry, looked up): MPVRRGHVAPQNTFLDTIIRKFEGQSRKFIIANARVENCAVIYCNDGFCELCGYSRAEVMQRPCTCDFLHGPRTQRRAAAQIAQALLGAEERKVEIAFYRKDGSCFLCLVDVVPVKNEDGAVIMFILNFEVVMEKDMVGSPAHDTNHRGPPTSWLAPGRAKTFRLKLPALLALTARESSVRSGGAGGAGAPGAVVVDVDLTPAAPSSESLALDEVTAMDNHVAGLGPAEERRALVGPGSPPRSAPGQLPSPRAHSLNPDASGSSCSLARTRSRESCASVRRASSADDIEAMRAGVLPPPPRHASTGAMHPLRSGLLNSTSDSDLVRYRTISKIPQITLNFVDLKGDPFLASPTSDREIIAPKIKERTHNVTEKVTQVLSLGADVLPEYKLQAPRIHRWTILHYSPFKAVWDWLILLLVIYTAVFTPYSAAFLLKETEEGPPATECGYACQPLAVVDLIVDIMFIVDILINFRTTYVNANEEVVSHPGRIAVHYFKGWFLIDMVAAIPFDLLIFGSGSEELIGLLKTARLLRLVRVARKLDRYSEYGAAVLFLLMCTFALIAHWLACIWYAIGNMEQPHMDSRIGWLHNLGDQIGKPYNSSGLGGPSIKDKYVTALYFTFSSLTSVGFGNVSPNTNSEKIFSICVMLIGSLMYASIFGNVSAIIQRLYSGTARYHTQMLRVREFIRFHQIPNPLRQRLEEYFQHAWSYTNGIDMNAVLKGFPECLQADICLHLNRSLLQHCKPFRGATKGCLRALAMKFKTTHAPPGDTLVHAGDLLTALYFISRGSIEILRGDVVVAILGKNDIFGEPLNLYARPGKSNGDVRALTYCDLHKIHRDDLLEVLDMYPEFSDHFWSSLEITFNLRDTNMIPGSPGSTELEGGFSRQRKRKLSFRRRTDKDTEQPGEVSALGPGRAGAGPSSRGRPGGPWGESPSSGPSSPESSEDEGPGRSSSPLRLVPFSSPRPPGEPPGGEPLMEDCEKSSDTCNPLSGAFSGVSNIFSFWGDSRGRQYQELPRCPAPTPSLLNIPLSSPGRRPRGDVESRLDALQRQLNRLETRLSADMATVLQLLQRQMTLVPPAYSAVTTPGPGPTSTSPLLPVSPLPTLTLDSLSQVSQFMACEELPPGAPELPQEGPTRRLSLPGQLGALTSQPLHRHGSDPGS

In order of rising “hERG current change (%, negative = inhibition) at 10uM” value:
1. CCOc1ccc(C(=O)NCC(=O)NC(C)c2ccc(-n3ccnc3)cc2)cc1OCC (stereo not shown)  -77.4%
2. COc1cccc(NC(=O)CSc2nnc(-c3ccco3)c(-c3ccco3)n2)c1  -59.6%
3. O=C(COc1ccc(Br)cc1)N1CCN(Cc2ccc3c(c2)OCO3)CC1  -53.9%
4. CC(C)Cn1c(N)c(C(=O)COC(=O)Cc2cccs2)c(=O)n(C)c1=O  -51.7%
5. Cc1ccc(N2CCN(CC(O)COc3ccccc3)CC2)cc1 (stereo not shown)  -50.9%
6. COCCn1ccc2c(OCC(=O)NCc3ccccc3)cccc2c1=O  -35.9%
7. C=CCOc1ccc2ccccc2c1CNc1ncn[nH]1  -31.9%
8. COc1ccc(S(=O)(=O)N2CCCCC2)cc1NC(=O)CSc1nnc(C2CC2)n1C  -23.6%
9. Cc1ccc(-n2nnnc2SCC(=O)N2c3ccccc3NC(=O)C2(C)C)cc1  -22.3%
10. CN(C)c1ccc(S(=O)(=O)NCC(=O)N2CCN(c3ccccc3)CC2)cc1[N+](=O)[O-]  -20.4%
11. Cc1cccc(NC(=O)c2cccc(S(=O)(=O)N3CCCCC3)c2)c1  -19.5%
12. CCCCC(c1nnnn1C(C)C)N1CCN(C(=O)c2ccco2)CC1.Cl (stereo not shown)  -18.9%
13. O=C(NCc1ccccc1)c1ccc(F)c(S(=O)(=O)N2CCOCC2)c1  -17.4%
14. CCOC(=O)C1CCN(c2nc3cc(OC)ccc3cc2C#N)CC1  -16%
15. CCN(CC(=O)NCc1cccs1)C(=O)c1cccc(S(=O)(=O)Nc2ccccc2Cl)c1  -15.7%
16. CCOCC(=O)NCc1ccc2c(c1)cc(C)n2C  -14.8%
17. CCOc1ccccc1NC(=O)c1sc2nc(C)nc(N3CCOCC3)c2c1C  -14.4%
18. O=C(CSc1nc2ccccc2c(=O)n1CC1CCCO1)Nc1ccccc1 (stereo not shown)  -14.1%
19. CC(=O)Nc1cccc(NC(=O)c2cc(-c3cccnc3)nc3ccc(Br)cc23)c1  -12.2%
20. COc1cc(C(=S)N2CCOCC2)cc(OC)c1OS(=O)(=O)c1ccc(NC(C)=O)cc1  -8.58%
21. CC(=O)NCCOc1ccc2oc3ccccc3c2c1  -8.21%
22. O=C(c1cc(Br)ccc1Cl)N1CCN(c2ccccn2)CC1  -7.85%
23. CC1CCCN(S(=O)(=O)c2ccc(NC(=O)C3CC(=O)N(c4ccccc4)C3)cc2)C1 (stereo not shown)  -7.32%
24. Cc1ccccc1OCCC(=O)N(Cc1ccccc1)c1c(N)n(Cc2ccccc2)c(=O)[nH]c1=O  -7.3%
25. O=C(CN1CCc2ccccc2C1)Nc1ccc(OC(F)(F)F)cc1  -6.92%
26. O=c1c2cc(NC(=S)NCc3ccccn3)ccc2nc2n1CCCCC2  -6.42%
27. CN(C(=O)CSc1nnc(-c2ccco2)n1Cc1ccccc1)C1CCS(=O)(=O)C1 (stereo not shown)  -6.24%
28. CCOC(=O)c1c(NC(=O)COc2cccc3c2CCN(C)C3=O)sc2c1CCC2  -5.86%
29. CCCSc1nc(=O)n2cccc(C)c2n1  -5.47%
30. COc1cccc(NC(=O)c2cnn(-c3ccccc3)c2C)c1  -4.54%
31. COc1ccc(Cc2nnc(NC(=O)c3cccs3)s2)cc1  -3.76%
32. O=C(Oc1ccc(-c2nnco2)cc1)c1ccc(F)c(S(=O)(=O)N2CCOCC2)c1  -3.26%
33. COc1ccc(NC(=O)CN(C)S(=O)(=O)c2ccc(Cl)cc2)cc1Cl  -3.05%
34. O=c1c(C(c2c(O)nc3n(c2=O)CCS3)c2cccc3ccccc23)c(O)nc2n1CCS2  -2.13%
35. COc1cc(OC)cc(C(=O)NC(C(=O)Nc2ccc3c(c2)CCC3)C(C)C)c1 (stereo not shown)  -1.96%
36. COc1ccccc1N(CC(=O)Nc1ccc(Cc2ccncc2)cc1)S(=O)(=O)c1ccccc1  -1.61%
37. CC(C)C(=O)N=c1sc2cccc(F)c2n1C  -1.46%
38. NNc1nc(NCc2ccccc2)nc(N2CCOCC2)n1  -1.19%
39. O=C(CSc1nccn1-c1ccccc1)Nc1ccc2c(c1)OCO2  0.552%
40. CC(=O)Nc1cccc(-c2cn3ccc(C)cc3n2)c1  1.06%
41. O=C(Nc1ccccc1F)C1CCCN(S(=O)(=O)c2cccc3cccnc23)C1 (stereo not shown)  1.36%
42. O=C(Nc1ccccc1F)C(=O)Nc1cccc2ccccc12  1.62%
43. O=C(N/N=C/c1cc([N+](=O)[O-])ccc1O)c1ccncc1  1.76%
44. COc1cccc(NC(=O)CSc2nc3c(oc4ccccc43)c(=O)[nH]2)c1  2.23%
45. Cc1nnc(NCc2ccccc2)c2ccccc12  2.49%
46. CCN1CCN(C(=O)CSc2ccc(C)cc2)CC1  2.51%
47. COc1ccc(CCNC(=O)CN(c2ccccc2OC)S(C)(=O)=O)cc1  2.74%
48. CC(=O)Nc1ccc(C(=O)OCC(=O)NCc2cccs2)cc1  3.14%
49. C/C(=C/C(=O)O)C(=O)Nc1cccc(C(F)(F)F)c1  3.16%
50. Cc1ccccc1-n1ncc(C(C)NS(=O)(=O)c2sccc2C)c1C (stereo not shown)  3.82%
51. CCCc1cc(=O)[nH]c(SCC(=O)OCc2ccccc2)n1  4.21%
52. Cc1nc(C(F)(F)F)c(C(=O)NC(=O)Nc2ccccc2)s1  4.57%
53. C/C(=N\NC(=O)c1ccc2ccccc2c1)c1cccnc1  4.69%
54. O=C(Cn1nc(-c2ccccc2)c2ccccc2c1=O)NN1CCOCC1  5.24%
55. CCCN1CCc2[nH]c(=S)[nH]c(=O)c2C1  5.71%
56. c1ccc(Sc2ncnc3c2oc2ccccc23)nc1  6.59%
57. CN(C)C=NC(=O)c1cc(C(=O)c2ccc(Cl)cc2Cl)c[nH]1  7.03%
58. Cc1c(C)c2cc(Cl)c(OCc3nn[nH]n3)cc2oc1=O  7.52%
59. CCOCc1nc(N)[nH]c(=O)c1Cc1ccc(OC(C)C)cc1  8.29%
60. CCCCN(CC(=O)NCc1ccc(F)cc1)C(=O)c1ccco1  8.72%
61. COc1ccccc1NC(=O)NCCc1c[nH]c2ccccc12  8.87%
62. COc1ccc(-n2c(SCC(=O)NCC3CCCO3)nc3n[nH]c(C)c3c2=N)cc1 (stereo not shown)  9.55%
63. Nc1c(C(=O)Nc2cccc(F)c2)nnn1-c1cccc(C(F)(F)F)c1  10.1%
64. C=CCn1c2ccccc2c2nn(C)c(=S)nc21  10.2%
65. CC(C)NC(=O)NC(=O)COc1c(F)c(F)cc(F)c1F  10.5%
66. CN(c1ccccc1)S(=O)(=O)c1ccc(Cl)nc1  10.8%
67. COc1ccc(NC(=O)CS(=O)CC(=O)Nc2ccc(OC)c(OC)c2)cc1 (stereo not shown)  10.9%
68. Cc1occc1-c1nnc(SCC(=O)Nc2nc(-c3ccccc3)cs2)o1  11%
69. O=C1c2ccccc2NC(c2cccc(O)c2)N1c1ccccc1 (stereo not shown)  11.6%
70. Cc1ccc(CNC(=O)/C=C/c2ccccc2Cl)cc1  12.5%
71. CC(=O)c1ccccc1NS(=O)(=O)c1ccccc1Cl  12.7%
72. COC(=O)NC1CCC(NC(=O)OC)CC1 (stereo not shown)  12.9%
73. CC(C)CN(C(=O)COC(=O)CNC(=O)c1ccccc1F)C1CCS(=O)(=O)C1 (stereo not shown)  12.9%
74. O=C(NC(=S)NNC(=O)c1cnccn1)c1ccc(Cl)cc1  13.6%
75. CC(=O)Nc1ccc2sccc2c1  13.9%
76. COCc1c(C(=O)NC(C)c2ccc(S(N)(=O)=O)cc2)oc2ccccc12 (stereo not shown)  14.1%
77. Cc1ccc(C(=O)c2c3ccccc3[n+]([O-])n2CCC(=O)O)cc1  14.4%
78. N/C(=N\OC(=O)c1cnn(-c2ccccc2)c1C(F)(F)F)c1cc(C(F)(F)F)cc(C(F)(F)F)c1  14.6%
79. O=C(CSc1n[nH]c(-c2ccco2)n1)Nc1ccccc1F  15.3%
80. O=C(c1ccc(F)cc1)N1CCCC(c2ccccc2)C1 (stereo not shown)  15.8%
81. CC(Cc1cccs1)NC(=O)CCCn1nnnc1CN1CCOCC1 (stereo not shown)  16%
82. CC(NC(=S)NNS(=O)(=O)c1cccc([N+](=O)[O-])c1)c1ccccc1 (stereo not shown)  16.1%
83. C=CCn1c(Cc2nc3ccccc3[nH]2)n[nH]c1=S  16.4%
84. CC1CCC(N2CCNCC2)CC1.Cl (stereo not shown)  16.5%
85. O=C(O)c1c[nH]c2ccc(S(=O)(=O)N3CCOCC3)cc12  17.7%
86. Cc1nn(-c2ccccc2)nc1-c1nnc(-c2ccc(C(F)(F)F)cc2)o1  18.8%
87. Cc1nc2oc3ccc(Cl)cc3c(=O)c2cc1C(=O)O  19%
88. Cc1ccc(Nc2nnc(-c3ccc4c(c3)OCO4)o2)c(C)c1  19.8%
89. CC1CCC(NC(=O)CCCCn2c(=O)[nH]c3ccsc3c2=O)CC1 (stereo not shown)  21.8%
90. Cc1cccc(NC(=O)CSc2nc3[nH]ncc3c(=O)[nH]2)c1C  22.3%
91. CC(C)CNC(C)C(=O)Nc1ccc(S(N)(=O)=O)cc1 (stereo not shown)  34.4%
